Assay results published in the RNAGym collection of RNA variant scans (doi:10.7554/elife.90254).
Read counts are not given, so values of variants with three or more changes are uncertain.

B1: OR4K15 (parent)
chain: GUUAACGGUCAUAGGCCAUGGAAACUAGGAGCACCAUUUCGCUGCCAGUGAAGAAAUGAACAAAGAAAAUCUGGGCCAGGCAGGCAUCAAAAGAAAUAGUCUUGCGCUCAACCAGAAAGUCUGUAAUCAUUUUAAGGGUA

Variants of: B1
Test: self-cleavage, relative activity (ratio to wild type); higher = more cleavage; in vitro, sequencing; the parent is a self-cleaving ribozyme

Variant	self-cleavage
GUUAACGGUCAUAGGCCAUGGAGACUAGGAGCACCAUUUCGCUGCCAGUGAAGAAAAGAACAAAGAAAAUCUGGGCCAGGCAGGCAUCAAAAGGAAUAGUCCUGCGCUCAACCAGAAAGUCUGUAAUCAUUUUAAGGGUA [A23G U57A A94G U102C]	1.11
GUUAACGGUCAUAGGCCAUGGAAACUAGGUGCACCAUUUCGCUGCCAGUGAAGAAAUGUACAAAGAAGAUCUGGGCCAGGCAGGCAUCAAAAGAAAUAGUCUUGCGCUCAACCAGAAAGUCUGUAAUCAUUUUAAGGGCA [A30U A59U A68G U139C]	0.5
GCUAACGGUCGUAGGCCAUGGAAACUAGGAGCACCAUUUCGCUGCCAGUGAAGAAAUGAACAAAGAAAAUCUGGGCCAGGCAGGCAUCAAAAGAAAUAGUCUUGCGCUCAGCCAGAAAGUCUGUAAUCAUUUUAAGGGUA [U2C A11G A111G]	0.02
GUUAACGGUCAUAGGCCAUGGAAACUAGGAGCACCAUUUCGCUGCCAGUGAAGAGGUGGACAAAGAAAAUCUGGGCCAGGCAGGCAUCAAAAGAAAUAGUCUUGCGCUCAACCAGAAAGUCUGUAAUCAUUUUAAGGGUA [A55G A56G A59G]	1.41
GUUAACGGUCAUAGGCCAUGGAAACUAGGAGCACCAUUUCGCUGCCAGCGAAGAAAUGAACAAAGAGAAUCUGGGCCAGGCGGGCAUCAAAAGAAAUAGUCUUGCGCUCAACCAGAAAGUCGGUAAUCAUUUUAAGGGUA [U49C A67G A82G U122G]	0.45
GUUAACGGUCAUAGGCCAUGGAAACUAGGAGCACCAUUUCGCUGCCAGUGAAGAAAAGAACAAAGAAAACCUGGGCCAGGCAGGCAUCAAAAGAAAUAGUCUUGCGCUCAACCAGAAAGUCUGUAAUCUUUUUAAGGGUA [U57A U70C A129U]	0.41
GUUAACGGUCAUGGGCCAUGGGAACUAGGAGCACCAUUUCGCGGCCAGUGAAGAAAUGAACAAAGGAAAUCUGGGCCAGGCAGGCAUCAAAAGAAAUAGUCCUGCGCUCAACCAGGAAGUCUGUAAUCAUCUUAAGGGUA [A13G A22G U43G A66G U102C A116G U131C]	1.36
GUUAACGGUCAUAGGCCAUGGAAACUAGGAGCACCACCUCGCUGCCAGUGAAGGAAUGAACAAAGAAAAUCUGGGACAGGCAGGCAUCAAAAGAAAUAGUCUUGCGCUCAACCAGAAAGUCUGUAACCAUUUUAAGGGUA [U37C U38C A54G C76A U127C]	0.08
GCUAACGGUCUUAGGCCAUGGAAACUAGGAGCACCAUUUCGCUGCCGGUGAAGAAAUGAACAAAGAAAAUCUGGGCCAGGCAGGCAUCAUAAGGAAUAGUCUUGCGCUCAACCAGAAAGUCUGUAAUCAUUUUAAGGGUA [U2C A11U A47G A90U A94G]	0.68
GUUAACGGUCAUAGGCCUUGGAAACUAGGUGCACCAUUUCGCUGCCAGUGAAGAAAUGAACAAAGAAGAUCUGGGCCAGGCAGGCAUCAAAAGAGAUAGUCUUGCACUCAACCAGAAAGUCUGUAAUCAUUUUAAGGGUA [A18U A30U A68G A95G G106A]	0.01
GUUAACGGUCAUAGGCCAUGGAAACUAGGAGCACCAUUUCGCUGCCAGUGAAGAAAUGAACAAAGAAGAUCUGGGCCAGGCAGGCAUCAGAAGAAAUAGUCCUGCGCUCAACCAGAAAGUCUGUAAUCAUUUUAAGGGUA [A68G A90G U102C]	2.25
GUUAACGGUCAUAGGCCAUGGAACCUAGGUGCACCAUUUCGCUGCCAGUGAAGAAACGAACAAAGAAAAUCUGGGCCAGGCAGGCUUCAGAAGAAAUAGUCUUGCGCUCAUCCAGAAAGUCUGUAAUCAUUUUAAGGGUA [A24C A30U U57C A86U A90G A111U]	0.04
GUUAACGGUCAUAGGCCUUGGAAACUAGGAGCACCAUUUCGCUGCCAGUGAAGAAAUGGACACAGAAAAUCUGGGCCUGGCAGGCGUCAAAAGAAAUAGUCUUGCGCUCAACCAGAAAGUCUGUAAUCGUUUUAAGGGUA [A18U A59G A63C A78U A86G A129G]	0.14
GUUAACGGUCGUAGGCCAUGGAAACUAGGAGCACCAUUUCGCUGCCAGUGAAGAGAUGAACAAAGAAAAUCUGGGCCAGGCAGGCAUCAAAAGGGAUAGUCUUGCGCUCAACCAGAAAGCCUGUAAUCAUUUUAAGGAUA [A11G A55G A94G A95G U120C G138A]	1.99
GUUGACGGUCAUAGGCCAUGGAAACUAGGAGCACCAUCUCGCUGCCAGUGAAGAAAUGAACGAAGAAAAUCUGGGCCAGGCAGGCAUCAAAAGAAAUAGUCUUGCGCUCAACCAGAAAGUCUGUAAUCACUUUAAGGGUA [A4G U38C A62G U130C]	0.34
GUUAACGGUCAUAGGCCAUGGAAACUAGGAGCACCAUCUCGCUGCCAGUGAAGAAAUGAGCAAAGAGAAUCUGGGCCAGGCAGGCAUCAAAAGAAAUAGUCUUGCGCUCAACCAGAAAGUCUGUAAUCAUUUUAAGGGUA [U38C A60G A67G]	1.16
GUUAACGGUCAUAGGCCAUGGAAACUAGGAGCACCAUUUCGCUGCCAGUGAAGAAAUGAACAAAGAAAAUCUGGGCCAGGCAGGCAUCAAAAGCAAUAGUCUUGCGCCCAACAAGAAAGUCUGUAAUCAUUUUAAGGGUA [A94C U108C C113A]	0
GUUAACGGUCAUAGGCCACGGAGACUAGGAGCACCAUUUCGCUGCCAGUGAAGAAAUGAACAAAGAAAAUCUGGGCCAGGCAGGCAUCAAAAGGAAUAGUCUUGCGCUCAACCAGAAAGUCCGUAAUCAUUUUAAGGGUG [U19C A23G A94G U122C A140G]	1.26
GUUAACGGUCAUAGGCCAUGGAAACUAGGAGCACCAUUUCGCUGCCAGUGAAGAAAUGAACAAUGAAGAUCUGGGCCAGGCAGGCAUCAAAAGAAAUAGUCUUGCGCUCAACCAGAAGGUCUGUAAUCAUUUUAAGGGUA [A64U A68G A118G]	0.79
GUUAACGGUCAUAGGCCAUGGAAACUAGGAGCACCAUUUCGCUGCCAGUGAAGAAAUGAACAAAGAAAAUCUGGGCCAGGCAGGCAUCAAAAGGAAUAGUCAUGCGCUCAACCAGAAAGUCUGUAAUCAUUAUAAGGGUA [A94G U102A U132A]	0.35
GUUAACGGUCAUAGGCCAUGGAUACCAGGAGCACCAUUUCGCUGCCAGUGAAGAAAUGAGCAAAGAAAAUCUGGGCCAGGCAGGCAUCAAAAGAAAUAGUCUCGCGCUCAACCAGAAAGUCUGUAAUCAUUUUAAGGGUA [A23U U26C A60G U103C]	0.93

Variant	self-cleavage
GCUAACGGUCAUAGGCCAUGGAAACUAGGAGCACCAUUUCGCUGCCUGUGAAGAAAUGAACAAAGAAAAACUGGGCCAGGCAGGCAUCAAAAGAAAUAGUCUUGCGCUCAACCAGAAAGUCUGUAAUCAUUUUAAGGGCA [U2C A47U U70A U139C]	0.69
GUUAACGGUCAUAGGCCAUGGAAACUAGGAGCACCAUUUCGCUGCCAGUGAAGAAACGAACGAAGAAAAUCUGGGCCAGGCAGGCACCAAAAGAAAUAGUCUUGCGCUCAACCAGAAAGUCUGUAAUCAUUUUAAGGGUA [U57C A62G U87C]	0.2
GUUAACGGUCGUAGGCCAUGGAAACUAGGAGCACCAUUUCGCUGCCAGUGAAGAAAUGAACAAAGGAAAUCUGGGUCAGGCAGGCAUCAAAAGAAAUAGUCUUGCGCUCAACCAGAAAGUCUGUCAUCAUUUUAAGGGUA [A11G A66G C76U A125C]	0.36
GUUAACGGUCAUAGGCCAUGGAGGCUAGGAGCACCAUUUCGCCUCCAGAGAAGAAAUGAACAAAGAAAAUCUGGGCCUGGCAGGCAUCAAAAGAAAUAGUCUUGCGCUCAACCAGAAAGUCUGUAAUCAUUUUAAGGGUA [A23G A24G U43C G44U U49A A78U]	0.43
GUUAACGGUCAUAGGCCAUGGAAACUAGGAGCACCAUUUCGCUGCCAGUGAAGAAAUGAACAAAGAAAAUCUGGGCCAGGCAGGCAUCAAAAGAAAUAGUCUUGCUCUCAACCAGAAAGUCUAUAACCAUUUUAAGGGUA [G106U G123A U127C]	0
GUUAACGGUCAUAGGCCAUGGAAACUAGGAGCACCAUUUCGCUGCCGGUGAAGAAAUGAACAUAGAAAAUCUGGGCCAGGCAGGCAUCAAAAGAAAUAGUCUUGCGCUCAACCAGAAAGUCUGUAAUCAUUUUAGGGGUA [A47G A63U A135G]	1.48
GUUAACGGUCAUAGGCCAUGGAAACUAGGAGCACCAUUUCGCUGCCAGUGAAGAAAUGAACAAAGAAAAUCUGGGCCAGGCAGGCUCCAAGAGAAAUAGUCUUGCGCUCAACCAGAAAGUCUGUAAUCAUUUUAAGGGUU [A86U U87C A91G A140U]	0.22
GUUAACGGUCAUAGGCCAUGGAGACUAGGAGCACCAUUUCGCUGCCAGUGUAGAAAUGAACAAAGGAAAUCUGGGCCAGGCAGGCAUCAGAAGAAAUAGUCUUGCGCUCAACCAGAAAGUCUGUAAUCAUUUUAAGGGUA [A23G A51U A66G A90G]	0.1
GUUAACGGUCAUAGGCCGUGGAAACUAGGAGCACCAUUUCGCUGCCAGUGAAGAAAUGAACAAAGAAGAUCUGGGCCAGGCAGGCAUCAAAAGAAAUAGUCUUGCGCUCAACCAGAAAGUCCGUAAUCAUUUUAAGGGUA [A18G A68G U122C]	0.41
GUUAACGGUCAUAGGCCAUGGAAACUAGGAGCACCAAUUCGCUGCCAGUGAGGAAAUGAACAAAGAAAAUCUGGGCCAGGCAGGCAUCAAAAGAAAUAGUCUUGCGCUCAACCAGAAGGUCUGUAAUCAUUUUAAGGGUA [U37A A52G A118G]	1.68
GUUAACGGUCAUAGGUCAUGGAAACUAGGAGCACCAUUUCGCUGCCAGUGAAGAUAUGAACAAGGAAAAUCUGGGCCAGGCAGGCAUCCAAAGAAAUAGUCUUGCGCUCAACCAGGAAGUCUGUAAUCAUUUUAAGGGUA [C16U A55U A64G A89C A116G]	0.54
GUUGACGGUCAUAGGCCAUGGAAACUAGGAGCACCAUUUCGCUGCCAGUGAAGAAAUGAACAAAGAAAAUCUGGGCCGGGCAGGCAUCAAAAGAAUUAGUCUUGCGCUCAACCAGAAAGUCUGUAAUCAUUUUGAGGGUA [A4G A78G A96U A134G]	0.39
GUUAACGGUCAUAGGCCAUGGAAACUAGGAGCACCAUUUCGCUGCCAGUGAAGAAAUGAACAGAGAAAAUCUGGGCCAGGCAGGCAUCAAAAGAAAUAGUCUUGCGCUCAACCAGAAAGUCCGUAAUCAUCUUAAGGGUA [A63G U122C U131C]	1.07
GUUAACGGUCAUAGGCCAUGGAAACUAGGAGCACCUUUUCGCUGCCAGUGAAGAAAUGAACAAGGAAAAUCUGGGCCAGGCAGGCAUCAAAAGAAAUAGUCUUGCGCUCAACCAGAAAGUCUGUAAUCAUUUUAUGGGUA [A36U A64G A135U]	2.04
GUUAACGGUCAUAGGCCAUGGAAACUAGGAGCACCAUUUCGCAGCCAGUGAAGAACUGAACAAAGAAAAUCUGGGCCAGGCAGGCAUCAAAAGAAAUAGUCUUGCGCUCGACCAGAAAGUCUGUAAUCAUUUUAAGGGUA [U43A A56C A110G]	0.09
GUUAACGGUCAUAGGCCAUGGAAACUAGGAGCACCAUCUCGCCGCCAGUGAAGAAAUGAACAAAGAAAAUCUGGGCCAGGCAGGCAUCAAAAGAAAUAGUCCUGCGCUCAACCAGAAAGUCUAUAAUCAUUUUAAGGGUA [U38C U43C U102C G123A]	2.59
GUUAACGGUCAUAGGCCAUGGAAACUAGGAGCACCAUUUCACUGCCAGUGAAGAAAUGAACAAAGAAAAUCCGGGCCAGGCAGGCGUCAAAAGGAAUAGUCUUGCGCUCAACCAGAAAGUCUGUAAUCAUUUUAAGGGUA [G41A U72C A86G A94G]	0.3
GUUAACGGUCAUAGGCCAUGGAAACUAGGAGCACCAUUUCGCUGCCAGUGAAGAAAUGAACAAAGAAAAUCUGGGCCAGGCAGGCAUCAAAGGAAAUAGUCUUGCUCUCAACCAGAAAGUCUGCAAUCAUUUUAAGGGUA [A92G G106U U124C]	0.01
GAUAACGGCCAUAGGCCACGGAAACUAGGAGCACCAUUUCGCUGCCAGUGAAGAAAUGGACAAAGAAAAUCUGGGCCAGGCAGGCAUCAAAAGAAAUAGUCUUGCGCCCAACCAGAAAGUCUGUAAUCAUUUUAAGAGUA [U2A U9C U19C A59G U108C G137A]	0.12
GUUAACGGUCAUAGGCCAUGGAAACUAGGAGCACCAUUUCGCUGCCAGUGAAGGAAUGAACAAAGAAGAACUGGGCCAGGCAGGCAUCAAAAGAAAUAGUCUUGCGCUCAACCAGAAAGUCUGUAAUCAUUUUAAGGGUA [A54G A68G U70A]	0.61
